Data reported in PubChem BioAssay (Tox21).
Where “and” joins values, the source holds several entries; their conditions need not be identical. Equal values may be shown once. This list was built around the results that the source calls inconclusive (neither active nor inactive); the mix of calls is not that of the screen. A potency beside an inconclusive call is a rough fit, not a confirmed value. Calls of active or inactive are those of the source. Calls come from the whole dose curve; as a rule, active = well fitted inhibition curve with a large enough effect in the repeat runs; inconclusive = weak or mixed curves; inactive = no such curve, though single readings can be large or run the other way.
% is set by controls: 0 for no effect and ±100 for the full control effect; potency is the fitted concentration of half-maximal effect; tags give direction and shape of the fitted curve.

Experiment: qHTS assay to identify small molecule antagonists of the thyroid receptor (TR) signaling pathway (AID 743065); note: nearly all actives have a fitted effect of over 55% in size
Conditions: GH3.TRE-Luc, T3-stimulated luciferase inhibition, 23.5 h; series mostly up to 70.3 µM; activity, negative = inhibition: at the top concentration
How it was run: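 GH3.TRE-Luc rat pituitary cells (two TREs driving luciferase) were dosed with compound, then stimulated with 1 nM T3 (final) for 23.5 h at 37 C. ONE-Glo luminescence was the read-out, with CellTiter-Fluor fluorescence as the cytotoxicity counter-screen.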
For `Cc1ccc(C)c(OCCCC(C)(C)C(=O)O)c1`, the Potency was inconclusive: 69.1 µM [inhibitor, single point] and inconclusive: 61.1 µM [inhibitor, partial curve, poor fit]. With `CCCCC(=O)OCC(=O)[C@H]1[C@H](C)C[C@H]2[C@@H]3C[C@H](F)C4=CC(=O)C=C[C@]4(C)[C@@]3(F)[C@@H](O)C[C@@]21C` the Potency was inconclusive: 7.5 µM [inhibitor, partial curve]. With `CN1CCN(C(c2ccccc2)c2ccccc2)CC1` the “activity, negative = inhibition” value was inactive: -0.542% [at 32.5 µM]. For `O=C(Nc1ccccc1)c1cc([N+](=O)[O-])ccc1Cl`, the Potency was active: 61.1 µM. In the case of `Clc1cccc(C(c2ccc3nc[nH]c3c2)n2ccnc2)c1` (configuration not stated), the Potency is reported as inconclusive: 29.8 µM [inhibitor]. With `CCCN(CCC)S(=O)(=O)c1ccc(C(=O)O)cc1` the Potency was inconclusive: 6.68 µM [inhibitor, full curve]. For `CCCCCCCCCCCCCCCCOS(=O)(=O)O`, the Potency was inconclusive: 33.5 µM [inhibitor]. With `O=C1CCCCCCCCCCCC(=O)OCCO1` the Potency was inconclusive: 61.1 µM [inhibitor, single point]. In the case of `CC(C)c1ccc2oc3nc(N)c(C(=O)O)cc3c(=O)c2c1`, the Potency is reported as inconclusive: 29.8 µM [inhibitor]. For `CC[C@]12CCCN3CCc4c(n(c5ccccc45)C(=O)C1)[C@@H]32`, the Potency was active: 7.17 µM. For `O=[N+]([O-])c1cc[n+]([O-])cc1`, the Potency was inconclusive: 68.6 µM [inhibitor, single point]. In the case of `Cc1cc(O)c2c(O)c3c(O)cccc3cc2c1`, the Potency is reported as inconclusive: 33.5 µM [inhibitor, single point].
